Experimental data taken from the BET-seq Pho4 binding data (Le et al. 2018).
Some of the results follow. Values were computed here from the reads of four pooled replicates and scatter widely.

Target: T1, Pho4 (S. cerevisiae) (UniProt P07270)
T1 sequence: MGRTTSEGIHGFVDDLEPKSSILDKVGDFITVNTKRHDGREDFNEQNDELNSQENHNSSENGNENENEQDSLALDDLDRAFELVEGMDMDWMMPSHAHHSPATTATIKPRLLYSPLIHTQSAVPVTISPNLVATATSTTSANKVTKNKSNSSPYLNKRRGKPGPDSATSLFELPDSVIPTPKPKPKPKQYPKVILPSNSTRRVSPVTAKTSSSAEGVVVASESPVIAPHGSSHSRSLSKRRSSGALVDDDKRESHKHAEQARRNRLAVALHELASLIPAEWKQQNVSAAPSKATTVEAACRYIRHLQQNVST
Test: relative binding free energy (BET-seq); higher = weaker binding
Settings: reference: library average

Sequence	relative binding free energy
GTCGGCACGTGGGAGG	-0.07 kcal/mol
ATTAGCACGTGTGGCA	-0.15 kcal/mol
GAGGGCACGTGGTTTC	-0.07 kcal/mol
GTGCACACGTGGTGAG	0.1 kcal/mol
TTATTCACGTGTATGC	0.29 kcal/mol
AAGGGCACGTGCAAGG	-0.32 kcal/mol
TAGTTCACGTGTGACG	0.42 kcal/mol
GCTGGCACGTGTGCTT	0.14 kcal/mol
AATCACACGTGGGTTG	0.15 kcal/mol
TGAATCACGTGTATAA	0.23 kcal/mol
ATTTTCACGTGTAGGC	0.19 kcal/mol
TGGTACACGTGTATAG	0.02 kcal/mol
TATGACACGTGGAGTA	-0.07 kcal/mol
CATTGCACGTGGCGGT	-0.16 kcal/mol
AGTTACACGTGTGGCC	0.28 kcal/mol
TTTTACACGTGGAGAG	0.24 kcal/mol
TAGTTCACGTGTGAGA	0.41 kcal/mol
TCTTTCACGTGGGATA	0.15 kcal/mol
GATGTCACGTGTGCGG	0.21 kcal/mol
GTTGCCACGTGGATTG	0 kcal/mol
GTGAGCACGTGTGTAT	0.02 kcal/mol

Sequence	relative binding free energy
GGTAACACGTGGGGGA	-0.02 kcal/mol
AGGTACACGTGTAGGG	0.06 kcal/mol
TAATCCACGTGGGGGG	-0.14 kcal/mol
TTAGACACGTGTGATT	0.2 kcal/mol
GGGGCCACGTGATGCG	0.11 kcal/mol
ATGCTCACGTGGGGGA	0.03 kcal/mol
TTGGTCACGTGGGCGA	-0.03 kcal/mol
GTCACCACGTGTGTGG	0.02 kcal/mol
TTTTACACGTGACTGA	0.2 kcal/mol
GGTTTCACGTGCCTGG	0.31 kcal/mol
GCATGCACGTGGTTAT	0.12 kcal/mol
GATATCACGTGGTAAG	0.08 kcal/mol
ATTGACACGTGATCTT	0.15 kcal/mol
TTCTGCACGTGTGTGA	-0.03 kcal/mol
TCTGGCACGTGTTGAG	0 kcal/mol
GCGTGCACGTGTTTGA	0.13 kcal/mol
ATATGCACGTGGTCTG	-0.17 kcal/mol
TTGGCCACGTGTAGGC	-0.03 kcal/mol
TGCAGCACGTGGGAAG	-0.24 kcal/mol
GGCGTCACGTGGTAGT	0.16 kcal/mol
GAGCTCACGTGCGGTG	0.22 kcal/mol

Sequence	relative binding free energy
GTCTGCACGTGTTATT	0.07 kcal/mol
GGGTGCACGTGGTTGT	0.04 kcal/mol
TCGGCCACGTGGGGAT	-0.19 kcal/mol
CTTGTCACGTGGGGGT	-0.13 kcal/mol
AACGTCACGTGATATG	0.29 kcal/mol
CATCTCACGTGGGTGG	0.13 kcal/mol
GTGGTCACGTGTGAGT	0.19 kcal/mol
TTAAGCACGTGTGGGA	-0.01 kcal/mol
AGTATCACGTGCATGT	0.17 kcal/mol
CTAGGCACGTGATGTA	-0.02 kcal/mol
CGGGTCACGTGCGTGA	-0.08 kcal/mol
TCTGTCACGTGTGGTG	0.08 kcal/mol
GCGTGCACGTGGTCGT	-0.23 kcal/mol
GTACGCACGTGGGTTG	-0.28 kcal/mol
GATCGCACGTGTTGGT	0.08 kcal/mol
TAGGGCACGTGTGATT	-0.03 kcal/mol
GGTGGCACGTGGGTCT	-0.13 kcal/mol
GTAAACACGTGTATGA	0.16 kcal/mol
TATTGCACGTGATGTT	0.17 kcal/mol
GTTTGCACGTGCTCTG	0.11 kcal/mol
TTGGACACGTGAGTTA	0.26 kcal/mol
